Values marked as one replicate rest on one cluster of the flow cell; about a third of the high ones do not repeat.
Test system: ATP
Test: switch fluorescence ratio, 500 uM ATP over buffer (Cy3 cluster intensity, sum of 5 cycles each) (fold (ratio)); higher = stronger signal-on switching upon ATP binding; sequences stand for … in TCGTCGGCAGCGTCAGATGTGTATAAGAGACAGTTTTTTTTTTTTTTTTTTTTTTTTT…TC
Conditions: aptamer strand: ATP DNA aptamer (quencher-CACCTGGGGGAGTATTGCGGAGGAAGG + anchor), 100 nM annealed; ATP concentration: 500 uM; one replicate
How it was run: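 Imaging in selection buffer was followed by imaging after 15 min with 500 uM ATP at 22 °C, for Cy3-labelled switching-strand clusters annealed to 100 nM quencher-labelled ATP aptamer on a modified Illumina MiSeq flow-cell. Five of these buffer/ATP cycles ran, separated by NaOH stripping and re-annealing. The fluorescence ratio per cluster is summed target-cycle over summed buffer-cycle Cy3 intensity, averaged per switch-domain sequence; clusters outside 100-1000 RFU were removed.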
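Further: ATP exposure 15 min at 22 °C before imaging.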

TTCACGGTGA
switch fluorescence ratio: 0.968

GCGGAAGG
switch fluorescence ratio: 1.03

TGCTGGTCGC
switch fluorescence ratio: 1

TGAGTACATT
switch fluorescence ratio: 1

GTGTACTAAT
switch fluorescence ratio: 0.975

TCATACCTGG
switch fluorescence ratio: 0.983

CCGCTCTTGG
switch fluorescence ratio: 1.2

TTCTTTGTGG
switch fluorescence ratio: 0.983

CTTGTTGAGT
switch fluorescence ratio: 0.995

GTTGCTGGTT
switch fluorescence ratio: 0.957

GCCGTCGTTC
switch fluorescence ratio: 0.974

CTCTTTGAGT
switch fluorescence ratio: 0.997

GACAATCTTT
switch fluorescence ratio: 0.981

GCCGTCTTTC
switch fluorescence ratio: 0.981

CCCGAGCTTC
switch fluorescence ratio: 1.79

GCTCGATTTC
switch fluorescence ratio: 1.07

ACTGGCCTAC
switch fluorescence ratio: 1.14

CGTTCAATTT
switch fluorescence ratio: 1.01

GTATGATCCG
switch fluorescence ratio: 1.18

AATGGTGGTG
switch fluorescence ratio: 0.99

CGGATATTCC
switch fluorescence ratio: 1.1

CCACTACGGT
switch fluorescence ratio: 1.08

TTCCGTACTG
switch fluorescence ratio: 1.01

ATTAGGTTGT
switch fluorescence ratio: 0.979

TTTCCAATGG
switch fluorescence ratio: 1.07

TTATAGCCAA
switch fluorescence ratio: 2.44

AGAACGCATA
switch fluorescence ratio: 2.26

TCAAGGTTGG
switch fluorescence ratio: 1.01

ATGGCGAGTA
switch fluorescence ratio: 0.949

ACCCTGACCG
switch fluorescence ratio: 1.17

GGTTTTAAGA
switch fluorescence ratio: 1.02

TTTCAGGTCA
switch fluorescence ratio: 0.944

TTTATCACAT
switch fluorescence ratio: 1.08

TACGGTTCAC
switch fluorescence ratio: 1.11

CAGTCTTCAC
switch fluorescence ratio: 1.03

CGCCCTTAGG
switch fluorescence ratio: 1.05

CAAACGTCGG
switch fluorescence ratio: 1.02

GGGCATATGA
switch fluorescence ratio: 1.04

TTGGGAATCG
switch fluorescence ratio: 0.977

ATCGAGCGCA
switch fluorescence ratio: 1.1

TCTACCAATG
switch fluorescence ratio: 1.2

ACGACTCATT
switch fluorescence ratio: 1.2

GACGGAAGTC
switch fluorescence ratio: 1.05

CACAGAAACC
switch fluorescence ratio: 1.12

CGGTCTGCGC
switch fluorescence ratio: 1.03

AGGAAGGCAG
switch fluorescence ratio: 0.956

TTATCAGACG
switch fluorescence ratio: 1.03

CCGCCCGGGA
switch fluorescence ratio: 4.88

GTCCTTAGCC
switch fluorescence ratio: 1

CAAGTTGCGA
switch fluorescence ratio: 1.04

GGAATAAAGA
switch fluorescence ratio: 1.05

CGTAATCGAC
switch fluorescence ratio: 1.76

ATGGTAGCGT
switch fluorescence ratio: 0.977

TACGGAAAC
switch fluorescence ratio: 4.28

GGTTGATTTC
switch fluorescence ratio: 0.936

TATATTGGAC
switch fluorescence ratio: 1.03

CTGTTAGGCA
switch fluorescence ratio: 1.01

TAGGAGGGCA
switch fluorescence ratio: 0.961

GAATCCGGCG
switch fluorescence ratio: 1.07

GAAATAATAC
switch fluorescence ratio: 1.09

CGGGTGTGGT
switch fluorescence ratio: 1.03

AGAGGTAAAA
switch fluorescence ratio: 1

AAGTACTTA
switch fluorescence ratio: 1.07

CGGATGTATG
switch fluorescence ratio: 1.01

GCCGGGTTGG
switch fluorescence ratio: 1.01

ACAATATTT
switch fluorescence ratio: 1.02

AATGTCGGTT
switch fluorescence ratio: 0.989

CGCCTCTGCC
switch fluorescence ratio: 1.35

GAGCTAACAG
switch fluorescence ratio: 1

AGGGATCCGG
switch fluorescence ratio: 0.989

CCCGGTCACC
switch fluorescence ratio: 1.05

TACTGTCCC
switch fluorescence ratio: 1.1

CCAATTGGCC
switch fluorescence ratio: 0.964

CAGGAGAACT
switch fluorescence ratio: 1.02

GACTAGGACA
switch fluorescence ratio: 1.02

CGGTTAGAAT
switch fluorescence ratio: 0.952

TAGGCACTGC
switch fluorescence ratio: 1

GTAAACCGTG
switch fluorescence ratio: 1.06

TGGTGGACGA
switch fluorescence ratio: 1

GAGATTTCAC
switch fluorescence ratio: 0.986

TGCAGTCCGG
switch fluorescence ratio: 1.02

TGGCTGGTCC
switch fluorescence ratio: 0.97

TCGGCCAGGG
switch fluorescence ratio: 1.08

TCGGTTGGCC
switch fluorescence ratio: 0.981

CGAATACGCA
switch fluorescence ratio: 1.15

TTACACGGCG
switch fluorescence ratio: 1.07

ACGATGTTGC
switch fluorescence ratio: 1.04

TGAATAAGGT
switch fluorescence ratio: 0.968

ACGACAGGAG
switch fluorescence ratio: 0.95

GGCCTTGCGG
switch fluorescence ratio: 1.01

AATACATCCC
switch fluorescence ratio: 1.13

GCGGAGATGG
switch fluorescence ratio: 1

GATGGAAGAA
switch fluorescence ratio: 0.95

GGGGCTATT
switch fluorescence ratio: 1.01

TTTGAACTTA
switch fluorescence ratio: 1.01

GAATCTGCTG
switch fluorescence ratio: 1.06

CAGTTGACGT
switch fluorescence ratio: 1.03

GCCGGTCGCG
switch fluorescence ratio: 1.02

TTTGACCGT
switch fluorescence ratio: 0.998

TAAGAGAAGG
switch fluorescence ratio: 0.973

ACTGGATTTA
switch fluorescence ratio: 0.994

TATTGGAA
switch fluorescence ratio: 0.994

ACGATGCTGT
switch fluorescence ratio: 1.09

TTTATTCCA
switch fluorescence ratio: 1.02

TTACTGCGTG
switch fluorescence ratio: 1.01

TGCCATGAGA
switch fluorescence ratio: 1.03

TTCTATGCTC
switch fluorescence ratio: 0.999

AGGCCGACAC
switch fluorescence ratio: 1.08

ATGCGTGTGT
switch fluorescence ratio: 1.05

CGTGGTGCTA
switch fluorescence ratio: 0.962

ATATATGCCT
switch fluorescence ratio: 0.979

AAGTCTAGAC
switch fluorescence ratio: 0.982

CCGGCAGCTT
switch fluorescence ratio: 4.23

GCATTCGCCA
switch fluorescence ratio: 0.999

CAGTGGGTCG
switch fluorescence ratio: 0.989

TTACCCGCGT
switch fluorescence ratio: 1.24

TTTATCTTGC
switch fluorescence ratio: 1.07

ATGAACCG
switch fluorescence ratio: 1.05

AAAGGAGGTG
switch fluorescence ratio: 1.1

ATCATGAGTT
switch fluorescence ratio: 0.997

GGCCGTGACA
switch fluorescence ratio: 0.954

GGTTACAGAC
switch fluorescence ratio: 1.03

CGGGATTGTA
switch fluorescence ratio: 1.31

TGTCGGATCA
switch fluorescence ratio: 1.02

ACGTTATCTC
switch fluorescence ratio: 1.16

CAACTATGTC
switch fluorescence ratio: 1.01

TCCAGGACGG
switch fluorescence ratio: 1.03

GAAAGTGGGT
switch fluorescence ratio: 1.01

AGTATGTTCT
switch fluorescence ratio: 0.98

ATGTCCGATG
switch fluorescence ratio: 1.01

CATGGTCTTC
switch fluorescence ratio: 1.07

CAAGTCTTCG
switch fluorescence ratio: 0.977

TGATTGGTTG
switch fluorescence ratio: 0.981

TGTCAAACTG
switch fluorescence ratio: 1.03

ACGTGTCGGA
switch fluorescence ratio: 1.02

GAGTTGGTTG
switch fluorescence ratio: 1.01

AGAACACGAA
switch fluorescence ratio: 1.06

CTGCGCCGAG
switch fluorescence ratio: 1.03

TGAGTTACGG
switch fluorescence ratio: 1.02

CAAAACGAC
switch fluorescence ratio: 1.08

TTAAAACCCT
switch fluorescence ratio: 1.15

GAGTTTAGTG
switch fluorescence ratio: 0.981

GGAAGATTTA
switch fluorescence ratio: 0.997

ACGTGAGGGA
switch fluorescence ratio: 1.03

GAGGTAACCT
switch fluorescence ratio: 1.18

AAGGCCTTTT
switch fluorescence ratio: 0.991

GCCCAACCTT
switch fluorescence ratio: 1.38

TTTGCTAAT
switch fluorescence ratio: 0.981

TCTTGTAATT
switch fluorescence ratio: 0.989

ACTGTTCCTC
switch fluorescence ratio: 1.19

GGGATGTAGT
switch fluorescence ratio: 0.984

TTGCAGGCAG
switch fluorescence ratio: 1

GTCAACTGAT
switch fluorescence ratio: 1.08

CTGACGCTTT
switch fluorescence ratio: 1.32

GATAGCTACG
switch fluorescence ratio: 1.02

CGCCCCCACA
switch fluorescence ratio: 1.22

GTCTACAATC
switch fluorescence ratio: 1.08

AGGATCTTCG
switch fluorescence ratio: 1.01

TTTGTGAATA
switch fluorescence ratio: 1.01

CCTGTGTTCT
switch fluorescence ratio: 0.97

GGTATAGCGG
switch fluorescence ratio: 0.943

CGAATGTTGT
switch fluorescence ratio: 0.929

GACTGAGGTT
switch fluorescence ratio: 1.03

TCCCCGGGAA
switch fluorescence ratio: 0.996

GATGAGTAAA
switch fluorescence ratio: 0.964

GCAGGAACCG
switch fluorescence ratio: 0.997

CGGACTACTT
switch fluorescence ratio: 1.07

ATTTTGAT
switch fluorescence ratio: 0.988

GACAACTTGC
switch fluorescence ratio: 1.01

CAATGTGCGA
switch fluorescence ratio: 0.999

AACGCCAGAA
switch fluorescence ratio: 1.05

GCAAGAGCCA
switch fluorescence ratio: 1.01

CGTCCTCATT
switch fluorescence ratio: 1.38

CAAGGGTGTT
switch fluorescence ratio: 1.05

ACGAGCCTAT
switch fluorescence ratio: 1.05

AGCATTCCGC
switch fluorescence ratio: 1.04

CTCAGGGTGG
switch fluorescence ratio: 0.959

CGCGGTGCCG
switch fluorescence ratio: 0.949

TTTCTTAGTC
switch fluorescence ratio: 1.01

CCCAACTAAT
switch fluorescence ratio: 1.01

TTTGAAAACC
switch fluorescence ratio: 1.19

CTTACTATTA
switch fluorescence ratio: 1.02

TTCAATCCGG
switch fluorescence ratio: 1.09

GTAATATCCG
switch fluorescence ratio: 1.02

TAACAGTATC
switch fluorescence ratio: 1.06

CTTCTTTAGC
switch fluorescence ratio: 1

GCGCCAAGTC
switch fluorescence ratio: 1.15

GGGCTGCTTA
switch fluorescence ratio: 0.96

CTAATTAATG
switch fluorescence ratio: 1.04

CCTTTCCCTT
switch fluorescence ratio: 1.05

TAGAACCATC
switch fluorescence ratio: 1.01

CATAGCGTTT
switch fluorescence ratio: 1.03

GTTTCAACAG
switch fluorescence ratio: 1.04

GTAGGTTTCT
switch fluorescence ratio: 1.03

ATTTTATAAT
switch fluorescence ratio: 1.06

GCCGAAAGGT
switch fluorescence ratio: 1.04

TGCCGGAATT
switch fluorescence ratio: 1.04

ACTTATGTGT
switch fluorescence ratio: 0.985

ACACGGGCAA
switch fluorescence ratio: 0.871

AAAAGGCCCG
switch fluorescence ratio: 1

Source: the supplement of paper PMC10126150
